From paper PMC4336329 (PLoS ONE, 2015)
Hit rate of the full screen: of about 310,000 compounds, about 14,000 (4.5%) showed an effect of 50% or more. Effects have a minus sign here. This is one part of the list.

Each molecule was assayed against human ether-à-go-go-related gene (hERG) potassium channel (human, UniProt Q12809) (assay: primary screen, population patch clamp on CHO cells stably expressing hERG).
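Also: peak tail current of the secondary pulse compared with the same well before compound.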

Sequence of human ether-à-go-go-related gene (hERG) potassium channel (Q12809 whole entry, looked up): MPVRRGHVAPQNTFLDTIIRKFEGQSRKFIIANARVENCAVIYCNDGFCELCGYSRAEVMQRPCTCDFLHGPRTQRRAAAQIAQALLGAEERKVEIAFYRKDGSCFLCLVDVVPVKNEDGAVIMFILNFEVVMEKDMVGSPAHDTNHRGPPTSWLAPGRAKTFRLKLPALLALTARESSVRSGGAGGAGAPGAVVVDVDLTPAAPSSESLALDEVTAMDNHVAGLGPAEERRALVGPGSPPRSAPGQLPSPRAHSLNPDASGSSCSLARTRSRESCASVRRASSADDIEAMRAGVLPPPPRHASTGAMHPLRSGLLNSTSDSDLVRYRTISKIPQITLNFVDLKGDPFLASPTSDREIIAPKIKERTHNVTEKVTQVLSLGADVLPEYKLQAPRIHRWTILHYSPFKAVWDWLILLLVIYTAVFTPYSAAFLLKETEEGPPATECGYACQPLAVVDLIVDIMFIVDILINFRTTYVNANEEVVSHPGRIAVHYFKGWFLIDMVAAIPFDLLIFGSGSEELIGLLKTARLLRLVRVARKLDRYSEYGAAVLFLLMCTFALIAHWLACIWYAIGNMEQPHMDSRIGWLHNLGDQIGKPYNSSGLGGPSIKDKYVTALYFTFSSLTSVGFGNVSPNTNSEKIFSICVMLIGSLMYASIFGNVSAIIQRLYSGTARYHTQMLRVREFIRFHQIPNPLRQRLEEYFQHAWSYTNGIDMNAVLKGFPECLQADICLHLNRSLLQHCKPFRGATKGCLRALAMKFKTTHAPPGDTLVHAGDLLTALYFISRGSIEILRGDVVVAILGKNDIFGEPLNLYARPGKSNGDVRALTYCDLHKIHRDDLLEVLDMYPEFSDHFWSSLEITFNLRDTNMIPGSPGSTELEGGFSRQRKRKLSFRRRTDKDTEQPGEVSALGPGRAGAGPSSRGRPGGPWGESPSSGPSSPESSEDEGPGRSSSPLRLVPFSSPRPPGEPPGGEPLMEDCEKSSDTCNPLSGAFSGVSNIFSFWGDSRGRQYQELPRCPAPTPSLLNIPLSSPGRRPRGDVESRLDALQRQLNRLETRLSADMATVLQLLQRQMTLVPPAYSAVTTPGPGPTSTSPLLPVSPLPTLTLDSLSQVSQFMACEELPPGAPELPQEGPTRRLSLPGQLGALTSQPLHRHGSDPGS

| SMILES | hERG current change (%, negative = inhibition) at 10uM [%] |
| --- | --- |
| COc1ccccc1C(=O)c1nc2ccccc2n1C | -10.4 |
| CCn1c(SCC(=O)c2c[nH]c3ccccc23)nc2cc(S(=O)(=O)N3CCOCC3)ccc21 | 9.49 |
| Cc1cccc2sc(NC(=O)C3CCN(C(=O)c4ccco4)CC3)nc12 | -71.6 |
| COc1cccc(OCCn2cc(C(C)=O)c3ccccc32)c1 | 8.22 |
| COc1cc(C2C(C#N)=C(N)OC3=C2C(=O)CC(C)(C)C3)ccc1OC(=O)N1CCOCC1 (stereo not shown) | 5.32 |
| COc1ccc(C(C)=O)cc1CSc1nnc(C)n1-c1ccccc1 | -0.582 |
| O=C(O)c1ccc(Cl)c(NC(=S)NC(=O)c2ccccc2[N+](=O)[O-])c1 | 14.4 |
| Cc1ccc(-n2nc(C)cc2Nc2ncc(Cl)cc2Cl)cc1 | -13.7 |
| COC(=O)Cc1ccc(NC(=S)NCc2ccco2)cc1 | 23.3 |
| CCc1cccc(NC(=O)CCNC(=O)Cn2ccc3ccccc3c2=O)c1 | 12.7 |
| CCOc1cc(CN2CCN(C(=O)Cc3ccccc3)CC2)ccc1OC.O=C(O)C(=O)O | -37.6 |
| COC(=O)c1cccc(NC(=S)Nc2cccc(Cl)c2Cl)c1 | 8.76 |
| CCSc1cc(C2C(C(=O)OC)=C(C)NC3=C2C(=O)CCC3)c(C)o1 (stereo not shown) | -12.6 |
| O=c1c2ccccc2c(-c2cccc(C(F)(F)F)c2)nn1-c1ccccc1 | 2.53 |
| Nc1ncnc2c1ncn2C1OC(CO)C(O)C1N (stereo not shown) | 0.612 |
| Brc1cccc(-c2nnc3n2CCC3)c1 | 2.98 |
| Nc1ccn(Cc2cccc(Cl)c2)n1 | 7.72 |
| O=C(/C=C/c1ccc(OCCCF)cc1)N1CCOCC1 | 1.61 |
| O=C(CCl)N1CCN(S(=O)(=O)c2ccc3c(c2)OCCCO3)CC1 | 1.32 |
| CC(NC(=O)CN(C)S(=O)(=O)c1ccc(F)cc1)C1CC2CCC1C2 (stereo not shown) | -2.34 |
| COc1cccc(NC(=O)c2ccc(NCCCN3CCC(C)CC3)c([N+](=O)[O-])c2)c1 | -56.2 |
| Cc1ccc(NC(=O)/C(=C/c2cccc(Br)c2)NC(=O)c2ccco2)cc1 | -28.1 |
| Cc1cccn2c(=O)c(/C=C(\C#N)C(N)=O)c(N3CCN(c4cccc(Cl)c4)CC3)nc12 | -20.5 |

| SMILES | hERG current change (%, negative = inhibition) at 10uM [%] |
| --- | --- |
| Cc1cc(N2CCOCC2)nc2ccc(NC(=S)N3CCN(c4ccccc4)CC3)cc12 | 6.12 |
| O=C(COc1ccc(F)cc1)N1CCc2ccccc2C1 | -21.7 |
| Cc1c(NC(=O)c2cccs2)cccc1-c1nc2ccccc2s1 | 5.28 |
| O=C(NC1=NCCS1)NC12CC3CC(CC(C3)C1)C2 | 4.6 |
| CCCCn1c(=O)c(C(=O)Nc2cnccn2)c(O)c2ccccc21 | 13.6 |
| O=C1C2CC=CCC2C(=O)N1c1ccc(NCCc2ccccc2F)c([N+](=O)[O-])c1 (stereo not shown) | 11.7 |
| CCc1ccc(CNC(=O)C(=O)NCCc2ccc(OC)c(OC)c2)cc1 | 4.53 |
| Cc1ccc(S(=O)(=O)N2CCCCC2)cc1C(=O)N(C)CCOc1ccccc1 | -48 |
| CC(=O)c1ccc(Sc2ccc(C(C)=O)cc2)cc1 | -26 |
| COc1ccccc1OCC(=O)Nc1cc(C(F)(F)F)ccc1-n1cncn1 | -19.5 |
| CCCCCCc1nnc(N)s1 | -0.995 |
| Cc1ccc(S(=O)(=O)NCC(C)n2nc(C)nc2C)cc1 (stereo not shown) | -0.542 |
| COc1ccc(CCNC(=O)CSc2nnc(-c3ccc(F)cc3)o2)cc1OC | 0.28 |
| COC(=O)c1c(C(=O)OC)c(-c2ccc(OC)cc2)n2c1CS(=O)C2 (stereo not shown) | 10.1 |
| O=c1[nH]cnc2cc(Cl)ccc12 | 8.17 |
| O=C(O)C(CC1CCCCC1)N1CCS(=O)(=O)CC1 (stereo not shown) | 11.6 |
| O=C1CC(N2CCC(c3nc4ccccc4[nH]3)CC2)C(=O)N1Cc1ccccc1 (stereo not shown) | -45.8 |
| Cc1c(C(=O)NCCc2ccc3c(c2)OCCO3)oc2ccccc12 | -19.5 |
| O=C(NCc1ccc2c(c1)OCO2)Nc1ccc(F)cc1 | 1.83 |
| Nc1ccc2oc(-c3cccc(Br)c3)nc2c1 | -6.71 |
| COCC(C)OC(=O)C(C#N)c1nc2ccccc2nc1N1CCN(Cc2ccccc2)CC1 (stereo not shown) | -31 |
| COc1ccccc1C(=O)N1CCN(Cc2ccc3c(c2)OCO3)CC1 | -0.86 |
| Nc1nc(N)nc(-c2cc(F)ccc2O)n1 | 12.4 |

| SMILES | hERG current change (%, negative = inhibition) at 10uM [%] |
| --- | --- |
| Cc1ccc(C)c(CN2CCC(CNC(=O)Nc3ccc(Cl)cc3)CC2)c1 | -68.6 |
| Cc1ccc(NC(=O)CCC(=O)c2ccc(F)cc2)cc1Cl | -4.53 |
| O=C(Nc1cccc(F)c1)c1cc(S(=O)(=O)N2CCC3(CC2)OCCO3)ccc1F | -15.7 |
| CC(=O)N/N=C/C1=CCC2CC1C2(C)C (stereo not shown) | 44.2 |
| CN(C)S(=O)(=O)c1cccc(N=C2NN=C(c3ccccc3)CS2)c1 | 0.178 |
| CCn1c(C)nc2cc(C(=O)NNC(=S)Nc3ccccc3)ccc21 | 25.6 |
| Cc1nc2ccccc2c(=O)n1NC(=O)c1cccc(Cl)c1 | 13 |
| C(=N\Nc1nc(N2CCCC2)nc(N2CCCC2)n1)/c1ccncc1 | 2.85 |
| NN=C(c1ccccc1)c1ccccc1 | 14.6 |
| Nc1nc2ncc(C(=O)c3cc(F)ccc3O)cc2s1 | -0.22 |
| CCC(CC)c1nc2ccccc2c(=O)[nH]1 | 21.7 |
| Cc1ccc(C)c(N2CC(C(=O)Nc3cc(C)on3)CC2=O)c1 (stereo not shown) | 17.5 |
| COc1cc(NC(=O)CCN2CCN(c3ccccc3F)CC2)cc(OC)c1 | -56.6 |
| O=C(NCCc1ccccn1)c1cc(-c2ccc(Cl)cc2)nc2ccccc12 | -19.6 |
| O=C(NCCCN1CCOCC1)C(=O)N/N=C/c1ccc2c(c1)OCO2 | 12.4 |
| CCC(Oc1ccccc1)C(=O)NCc1ccc(S(N)(=O)=O)cc1 (stereo not shown) | -7.92 |
| CCOC(=O)C1=C[C@]2(CC)CCCN3CCc4c(n1c1ccccc41)[C@@H]32 | -91.8 |
| CCN(C(=O)CSc1nnc(Nc2ccccc2)s1)C1CCS(=O)(=O)C1 (stereo not shown) | -15.2 |
| CCC(C)Sc1cccc(-c2nc3ccc(C)cn3c2NC2CCCCC2)c1.O=C(O)C(F)(F)F (stereo not shown) | 21.7 |
| CCOc1ccc(C2C3=C(CCCC3=O)N(CC(=O)O)C3=C2C(=O)CCC3)cc1 | 2.21 |
| Cc1nn(CC(=O)NC(C)c2ccccc2)c(C)c1[N+](=O)[O-] (stereo not shown) | -2.83 |
| COC(=O)C1CCN(C(=O)CSc2ccccc2)CC1 | -2.01 |
| COc1cc(SC)ccc1C(=O)Nc1nc2ccccc2[nH]1 | 13.3 |

| SMILES | hERG current change (%, negative = inhibition) at 10uM [%] |
| --- | --- |
| CCN1CCN(c2cc(C)c3cc(NC(=O)Cc4ccccc4OC)ccc3n2)CC1 | -27.8 |
| Cc1csc(NC(=O)/C=C/c2ccc(C)o2)n1 | 14 |
| Cc1ccc(CC2S/C(=C(/C#N)C(=O)NCc3ccco3)N(c3ccccc3)C2=O)cc1 (stereo not shown) | 4.55 |
| CCOc1ccc2nc(NC(=O)C3=NNC(=O)CC3)sc2c1 | 15.3 |
| CC(C)OC(=O)c1ccc(NC(=O)c2ccccc2)cc1 | -4.54 |
| O=C(NC1CC1)c1ccc(F)cc1Cl | 21 |
| O=C(NNC(=O)c1cc(-c2cccnc2)nc2ccccc12)Nc1ccc(Cl)cc1 | -39.5 |
| O=c1[nH]c(CN2CCOCC2)nc2scc(-c3ccccc3)c12 | 10.7 |
| COc1ccc(CNC(=O)C(c2ccc(C)o2)N(C(=O)c2snc(C(N)=O)c2N)c2ccccc2OC)cc1 (stereo not shown) | -2.47 |
| Cc1cc(C)c(S(C)(=O)=O)c(Oc2cccc(C(F)(F)F)c2)n1 | 6.13 |
| Cn1c(=O)c2c(nc(NCc3ccccc3)n2C)n(C)c1=O | 3.65 |
| Cc1ccc(-n2nc(C)c(NC(=O)CCl)c2C)cc1 | -9.23 |
| COc1ccc(NC(=O)NN2CCOCC2)cc1OC | 39.8 |
| COc1cccc(CNC(=O)CNS(=O)(=O)c2ccc(Br)s2)c1 | 4.12 |
| Oc1ccccc1C(=S)N1CCCCC1 | 14.5 |
| Cc1ccc(C)c2[nH]c(=O)c(CCNC(=O)c3ccc(S(=O)(=O)N(C)C)cc3)cc12 | 0.852 |
| CCOC(=O)C(=O)C1=CN(Cc2ccccc2)C=C(C#N)C1 | 18 |
| Cc1cc(C)cc(OCC(=O)NCc2cc(C)nc3ccccc23)c1 | -32.4 |
| CC(=O)Nc1ccc(S(=O)(=O)NC2(C(F)(F)F)NC(=O)N(C3CCCCC3)C2=O)cc1 (stereo not shown) | 2.87 |
| CN(C)CCNC(=O)c1cc2c(s1)-c1ccccc1OC2 | -67.2 |
| Cc1cc(SCCC(=O)O)nc2ccccc12 | 22.1 |
| O=C(Nc1ccc(F)cc1)Nc1ccc2ccccc2n1 | 14.2 |
